The experiment relates to 817829-284-R-J1-PDC multi-cell spheroid viability. Kind of experiment: Anticancer human tumor 817829-284-R-J1-PDC patient-derived colon adenocarcinoma cell line growth inhibition [PI3K]. Conditions: for viability, T/C: stronger effect = lower value. The text has this: Combinatorial screen of targeted agents with the PI3K inhibitors inavolisib, alpelisib, duvelisib, and copanlisib in multi-cell type tumor spheroids
A high-throughput screen of multi-cell type tumor spheroids was designed to identify active combinations of targeted small molecules and PI3K pathway inhibitors. Complex spheroids include a stromal component modeled by human endothelial cells (HUVEC) and fibroblasts modeled by human mesenchymal stem cells (MSCs). The concentration ranges selected for each drug and investigational agent were based upon clinically achievable concentrations if the clinical Cmax of the agent was known.
Compounds. The drugs and investigational agents: inavolisib (NSC800729), alpelisib (NSC765974), duvelisib (NSC772469), copanlisib (NSC816437), ipatasertib (NSC767898), afuresertib (NSC778305), talazoparib (NSC767125), sapanisertib (NSC764658), selumetinib (NSC741078), tovorafenib (DAY101, NSC766906), vemurafenib (NSC761431), ravoxertinib (NSC781343), sotorasib (NSC818433), MRTX1133 (NSC 836407), abemaciclib (NSC 768073), palbociclib (NSC758247), venetoclax (NSC 766270), SY5609 (NSC837396), enzalutamide (NSC755605), and darolutamide (NSC825331), were obtained from the National Cancer Institute (NCI) Developmental Therapeutics Program Chemical Repository. The FDA-approved anticancer drug set is available from the NCI Developmental Therapeutics Program. […] The stock solutions were prepared in dimethyl sulfoxide (DMSO, Sigma-Aldrich, St. Louis, MO, cat. D2650) at 800-fold the tested concentration and stored at -70 degrees C prior to their use. All drugs and investigational agents were tested over a range starting from a high concentration at or near the clinical Cmax and decreasing in half-log increments. If the clinical Cmax for an agent had not been determined, the highest concentration tested was 10 microM.
Cell Culture. All cells were maintained in an incubator at 37 degrees C and 5% CO2 with 95% humidity. The PDC lines were cultured according to standard operating procedures established by the NCI PDMR (https://pdmr.cancer.gov/sops/default.htm). All PDCs were thawed and cultured in Matrigel-coated flasks prepared with a working solution of 1X Ham's F-12 nutrient mix, without supplementation (Invitrogen, Waltham, MA, cat. 11765054), 100 U/mL penicillin-streptomycin (Invitrogen, cat. 15140122), and 2.5% Matrigel (Corning Inc., Corning, NY, cat. 354248) for the first three passages. The 354836-022-R-J1-PDC, 475296-252-R-J1-PDC, and 997726-040-R-J2-PDC lines were cultured in 6A media, which includes advanced DMEM/F-12 (Thermo Fisher Scientific, cat. 12634028), 10 mM HEPES (Thermo Fisher Scientific, cat. 15630080), 1X GlutaMAX supplement (Thermo Fisher Scientific, cat. 35050061), 0.1 mg/mL primocin (InvivoGen, San Diego, CA, cat. ant-pm-2), 10% defined fetal bovine serum, heat inactivated (HyClone Laboratories Inc., Logan, UT, cat. SH30070.03HI), 50% L-WRN conditioned media (ATCC, cat. CRL-3276), 1.25 mM N-Acetyl-L-cysteine (Sigma-Aldrich, cat. A9165), 10 mM nicotinamide (Sigma-Aldrich, cat. N0636), 1X B-27 supplement (Thermo Fisher Scientific, cat. 17504044), 1X N-2 supplement (Thermo Fisher Scientific, cat. 17502048), and 10 microM Y-27632 dihydrochloride (Tocris Bioscience, Bristol, United Kingdom, cat. 1254). The 624824-186-R-J2-PDC line was cultured in 6C/Colon 1B media, which includes all 6A media components plus 50 ng/mL human EGF recombinant protein (Thermo Fisher Scientific, cat. PHG0311). […]

A number of entries come with more than one value. Only these are listed. An entry can have further records. Results that share an entry repeat one measurement in other runs, samples, wells, individuals or studies. Counts like (3×) say how often a value occurs here.
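Further: spheroids exposed to agents for seven days before readout.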
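Wherever viability, T/C is given: percent of vehicle DMSO control viability which is 100%.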

As to `COc1c(OCCCN2CCOCC2)ccc2c3n(c(=NC(=O)c4cnc(N)nc4)nc12)CCN3`, the viability, T/C (compound alone 0.00316 µM) is reported as 119, 55.9, 81.2, 87.2, 110, 76.2%.
With `Cc1nc(NC(=O)N2CCCC2C(N)=O)sc1-c1ccnc(C(C)(C)C(F)(F)F)c1` (stereo not drawn), the viability, T/C is reported as 90, 75.9, 102, 84.3, 120, 94.2% (compound alone 0.0316 µM); 78.2, 74.7, 96.2, 106, 120, 79.4% (compound alone 0.1 µM); 86.9, 84.7, 88.2, 61.9, 62.5, 98% (compound alone 0.316 µM); 94.8, 61.8, 68.7, 69.8, 69, 77.2% (compound alone 1 µM); 67.4, 57.3, 114, 68.2, 73.7, 95% (compound alone 3.16 µM).
As for `CC(Nc1ccc2c(c1)OCCn1cc(N3C(=O)OCC3C(F)F)nc1-2)C(N)=O` (stereo not drawn), the viability, T/C is, setting by setting: (compound alone 0.01 µM) 54.4, 71.2, 95.4 (2×), 83, 99.5%; (compound alone 0.0316 µM) 88.2, 74, 89, 66, 59.6, 85.4%; (compound alone 0.1 µM) 54.5, 60.8, 77.5, 89.7, 84, 80.3%; (compound alone 0.316 µM) 71.4, 39.9, 46.4, 47.6, 90.3, 67.1%; (compound alone 1 µM) 55.1, 59.8, 47.1, 55.6, 69.4, 72.5%.
Consider `CC(Cn1ccc(-c2ccc(C#N)c(Cl)c2)n1)NC(=O)c1cc(C(C)O)[nH]n1` (stereo not drawn), for which the viability, T/C is on record as 56.1, 112, 86.7, 79.7% (compound alone 0.0316 µM); 75.5, 72.5, 82.2, 119% (compound alone 0.1 µM); 93.4, 74.3, 66.4, 73.7% (compound alone 0.316 µM); 84.1, 90.4, 82.1, 110% (compound alone 1 µM); 79.3, 101, 77.2, 73.8% (compound alone 3.16 µM); 51.4, 75.3, 64, 119% (compound alone 10 µM).
For the compound `CC(=O)c1c(C)c2cnc(Nc3ccc(N4CCNCC4)cn3)nc2n(C2CCCC2)c1=O`, the IC50 (compound alone) is given as 86, 9.7, 27.2, 42 nM. Besides, the viability, T/C (compound alone 0.000316 µM) is recorded as 66.7, 102, 71, 78.7%; the viability, T/C (compound alone 0.001 µM) was 49.1, 137, 84.3, 98.8%; the viability, T/C (compound alone 0.00316 µM) is 58.4, 82.3, 90.7, 61.9%; the viability, T/C (compound alone 0.01 µM) is recorded as 69.4, 49.4, 75, 73.7%.
As to `CC1(C)CCC(CN2CCN(c3ccc(C(=O)NS(=O)(=O)c4ccc(NCC5CCOCC5)c([N+](=O)[O-])c4)c(Oc4cnc5[nH]ccc5c4)c3)CC2)=C(c2ccc(Cl)cc2)C1`, the viability, T/C (compound alone 10 µM) is listed as 7.08%, 5.43%, 102%.

Broadly, the viability, T/C is the ratio of treated to control. A word on the IC50: it is the concentration at which inhibition is half-maximal.

The values are drawn from PubChem BioAssay AID1963969 (Molecular Pharmacology Branch, DTP, NCI, 2024).
